In all, about 110,000 compounds were measured (“z-score”: median about -0.1, highest 2% from about 2 on). The list shows a part of the results.
Each compound was assayed against Metabotropic glutamate receptor 8 (Rattus norvegicus) (UniProt P70579) (assay: rat mGluR8 modulators via GIRK flux, primary screen, cell-based, thallium flux, HTS (AID 488969)). Details: HEK293 rat mGluR8, GIRK (G protein-gated inwardly rectifying potassium channel) thallium flux, FluoZin2; at 10 µM; stronger effect = higher value; submaximal glutamate (EC20) added with thallium.
Chain of UniProt P70579 (P70579 whole entry, looked up): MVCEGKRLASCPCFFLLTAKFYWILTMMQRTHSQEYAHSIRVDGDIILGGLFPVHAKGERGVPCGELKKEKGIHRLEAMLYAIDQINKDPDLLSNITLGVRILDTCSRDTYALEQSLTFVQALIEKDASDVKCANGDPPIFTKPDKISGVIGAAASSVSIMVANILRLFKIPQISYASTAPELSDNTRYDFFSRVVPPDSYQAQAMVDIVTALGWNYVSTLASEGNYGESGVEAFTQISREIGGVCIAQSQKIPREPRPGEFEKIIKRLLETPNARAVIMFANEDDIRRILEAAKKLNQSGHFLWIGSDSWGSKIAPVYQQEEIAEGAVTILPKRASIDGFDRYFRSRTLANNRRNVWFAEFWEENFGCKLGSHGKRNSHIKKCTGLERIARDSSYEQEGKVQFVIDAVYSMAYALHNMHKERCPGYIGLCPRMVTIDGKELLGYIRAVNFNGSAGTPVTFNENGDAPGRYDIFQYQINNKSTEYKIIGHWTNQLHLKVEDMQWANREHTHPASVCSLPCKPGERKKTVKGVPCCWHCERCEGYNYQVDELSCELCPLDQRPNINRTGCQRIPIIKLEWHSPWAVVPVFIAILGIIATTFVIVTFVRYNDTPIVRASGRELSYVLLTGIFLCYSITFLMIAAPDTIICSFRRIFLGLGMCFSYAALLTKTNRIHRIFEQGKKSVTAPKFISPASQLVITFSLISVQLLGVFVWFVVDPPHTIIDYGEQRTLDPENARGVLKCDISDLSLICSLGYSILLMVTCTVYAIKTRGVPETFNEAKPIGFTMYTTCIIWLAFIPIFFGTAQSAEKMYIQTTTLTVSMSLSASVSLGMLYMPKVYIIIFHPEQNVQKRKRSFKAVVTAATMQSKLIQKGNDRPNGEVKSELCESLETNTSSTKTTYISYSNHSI

Structure (SMILES) | z-score
COc1ccc(NC(=S)N2CCCC2)cc1 | -0.0997
O=C(OCn1nnc2ccccc2c1=O)c1ccc(Br)o1 | -0.128
CNNC(=O)C(C)NC(=O)c1ccc(Br)cc1 (centres undefined) | 0.0699
CCC1C(=O)n2nc(-c3ccccc3)cc2N=C1C (centres undefined) | 0.252
Cn1cccc1Cc1nnc(SCC(=O)NCc2ccccc2)n1-c1ccc(F)cc1 | -0.102
Cc1nc2ccccc2c2c1C(=O)N(C)C2=O | -0.142
CC1CN(S(=O)(=O)c2ccc(C(=O)NN3CCN(C)CC3)cc2)CC(C)O1 (centres undefined) | -0.181
O=C(Nc1cccc2cccnc12)c1cccnc1 | 0.172
Cc1ccc(C(=O)Oc2ccccc2N2C(=O)C3CCCCC3C2=O)cc1 (centres undefined) | -0.0226
Cc1c(C(=O)Nc2ccccc2)cn2c(nc3ccccc32)c1C#N | -0.348
Cc1cc(C)c(NC(=O)C2CCCN2CCOC(=O)c2cccc([N+](=O)[O-])c2)c(C)c1 (centres undefined) | 0.189
Cc1cc(C)cc(Oc2ccccc2/C=N\O)c1 | -0.125
COc1cccc(CC(NC(C)=O)C(=O)NC2CCN(c3nc(C)cc(C)c3C#N)CC2)c1OC (centres undefined) | -0.0194
C/C(=N\N=C(N)N)c1cccc([N+](=O)[O-])c1 | 0.671
CC[n+]1c(/C=C2/C=C(C)CC(C)(C)C2)sc2ccc(OC)cc21 | 0.704
COC(=O)c1ccc(C2/C(=C(/O)c3ccc(OC)cc3)C(=O)C(=O)N2Cc2ccco2)cc1 (centres undefined) | -0.382
CC(O)CNCc1cccc2ccccc12 (centres undefined) | 0.213
O=[N+]([O-])c1cc(C(F)(F)F)ccc1-n1nnc2ccccc21 | -0.202
Cc1cccc(CSC2=CS(=O)(=O)c3ccccc3N2)c1 | 0.0419
COc1ccc(CCNC(=O)CC2Oc3ccc(Cl)cc3NC2=O)cc1OC (centres undefined) | -0.723
COc1ccc(N2C3=C(CC4=C2CC(C)(C)CC4=O)C(=O)CC(C)(C)C3)cc1 | 1.09
O=C(NCc1ccco1)c1cccn2c(=O)c3c4c(sc3nc12)CCCC4 | -0.173
Cc1nn(Cc2ccccc2)c(Cl)c1C(=O)OCc1nnc(-c2ccccc2)o1 | -0.0192
Cc1noc(/C=C/N(C)C)c1S(=O)(=O)N1CCCC(C(=O)NC(C)c2ccccc2)C1 (centres undefined) | -0.241
CC(c1ccccc1)N(CCC(c1ccccc1)C1CCOC(C)(C)C1)C(=O)c1ccco1 (centres undefined) | 0.131
CCOC(=O)Cc1csc(NC(=O)c2cccnc2)n1 | -0.484
COc1ccccc1OCc1nnc(SCC(=O)Nc2ccc(C)cc2)n1C | 1.47

Structure (SMILES) | z-score
CCn1nnnc1SCC(=O)Nc1ccc2c(c1)OCCO2 | 0.914
Cc1sc2nc(C3CC3)nc(NCCNS(=O)(=O)c3ccccc3)c2c1C | -0.674
Cc1ccc(NC(=O)CCNC(=O)c2ccccc2Cl)cc1S(=O)(=O)N(C)C | -0.00648
COc1ccc(C2SCCN2S(=O)(=O)c2ccccc2)cc1OC (centres undefined) | 0.808
Cc1c(Cl)cccc1NC(=S)NCc1ccccc1 | 0.394
S=C(Nc1ccccc1)c1ccccn1 | 2.52
COC(=O)c1c(NC(=O)CC2Nc3ccccc3NC2=O)sc(C)c1C (centres undefined) | -0.371
O=C(NCc1cccnc1)c1sc2ccccc2c1Cl | -0.216
CCOC(=O)c1c(NC(=O)CSc2nc3c(c(=O)n(C)c(=O)n3C)n2C(C)C)sc(C)c1C | 0.0988
Cc1ccc(S(=O)(=O)Nc2cccc(/C=C/C(=O)O)c2)cc1 | -0.213
CCOC(=O)c1cc(CC)sc1/N=C/C1=C(O)CCCC1=O | -0.316
CCOC(=O)c1c(-c2cccc([N+](=O)[O-])c2)csc1N | -0.461
N#Cc1nc(-c2ccco2)oc1NCc1ccco1 | 0.193
O=S(=O)(c1cccs1)N1CN(Cc2ccc(Cl)cc2)c2nc3ccccc3nc21 | -0.298
Cc1nnc(SC(C)C(=O)Nc2ccc(S(=O)(=O)N3CCCCC3)cc2)s1 (centres undefined) | -0.135
Cc1ccc(Nc2nc(-c3ccc(S(=O)(=O)N4CCCC4)cc3)cs2)cc1C | -0.192
COc1cc(CN2CC(=O)N(c3ccc(C)cc3)C2=S)cc(OC)c1OC | -1.1
CC(=O)N1CCc2cc(S(=O)(=O)NC(CC(C)C)C(=O)N3CCc4ccccc4C3)ccc21 (centres undefined) | 0.864
COc1ccc(OC)c(-c2cc(C(=O)Nc3cc(C)on3)no2)c1 | 0.941
COc1ccc(/C=N\N=C2/SC(CC(=O)O)C(=O)N2c2ccc(O)cc2)cc1OC (centres undefined) | -0.0449
O=C(NCCCCCCNC(=O)N1CCCCCC1)N1CCCCCC1 | 0.00943
Cc1ccc(/C=N/NC(=O)c2ccncc2)o1 | -0.098
Cc1ccc(S(=O)(=O)N2CCN(C(=O)/C=C/c3ccco3)CC2)cc1 | -0.368
O=C(NC(NNc1ccc([N+](=O)[O-])cc1)(C(F)(F)F)C(F)(F)F)c1ccc(Cl)cc1 | 0.216
Cc1ccc(N2CCN(/N=C/c3c(C)nn(-c4ccccc4)c3Cl)CC2)cc1 | 0.225
CCOc1ccc(OCC(=O)c2c(O)c3ccccc3oc2=O)cc1 | -0.988
CCOC(=O)Cn1c(-c2nonc2NC(=O)c2ccccc2F)nc2ccccc21 | -0.605

From PubChem BioAssay AID488969 (Vanderbilt High Throughput Screening Facility, 2010)
